# Laboratory results as given in the supplement of paper PMC11417369.
# ± gives the standard deviation of the averaged measurements. This is one part of the list.
# System: PfAP2-EXP AP2 domain (GST-tagged)
# Assay: gcPBM binding intensity (ln(normalized median fluorescence intensity)); higher = stronger DNA binding
# How it was run: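 GST-fused DNA-binding domains of P. falciparum, expressed in E. coli, were applied at about 25 μg on average for 1 h to an Agilent 4 × 180k array of primer-extended double-stranded 36-bp intergenic genomic probes and negative controls. Binding intensity is the highest Masliner-normalised natural-log median intensity across replicate spots of either probe orientation, measured with Alexa488 anti-GST antibody and a 488 nm scan.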
row,Sequence,gcPBM binding intensity (ln)
1,AATCTATATTGACACACACACAAAAAAAAAAAAAAA [CACACA_site6739],8.15 ± 0.6
2,ATTTTAACCAATTATTGTACTTGGTTATTCTTTTTT [XGTACX_site7453],8.61 ± 0.36
3,CATATTAAAAATACATGTACATATATATTTAATATA [XGTACX_site8580],8.38 ± 0.18
4,AACCTCAAATACACAAGTACGTATAATAAGGAACAA [XGTACX_site4304],8.82 ± 0.4
5,TATAAATATGTGTTTACACACAATAATGAATTAAAA [CACACA_site6555],8.25 ± 0.35
6,GTTTGTAAATATTTTACACACATATTTATTTATATA [CACACA_site6632],8.28 ± 0.45
7,GTTAAAATAATATTATGTACATATATATAAAAATAT [XGTACX_site8512],8.65 ± 0.27
8,ATGGAAAAATGTATATATAAAATAAATATATTATAT [CACACA_negctrl_site1712],8.06 ± 0.29
9,AAATAAAAAGTAAAGCGTACAAATGATCAAATAATA [XGTACX_site7898],9.04 ± 0.53
10,TAATCAACAAAATCTACACACTAAAATGAAATATAA [CACACA_site3749],8.53 ± 0.46
11,CCCAGGTGCTCGTAACGTACTTACATCAAATATTAT [XGTACX_site4617],8.88 ± 0.27
12,AGAAGTGTAAAAGTTACACACACAAACTTGTCATTT [CACACA_site4613],8.6 ± 0.38
13,TATAAATAGATATATACACACTTGTGCAGAATATTA [CACACA_site7112],8.63 ± 0.25
14,AGGCGTGAAATATACGTACACACATTATTTATATTT [CACACA_site2558],8.58 ± 0.3
15,TAACATTACTCTTAACTCTTTTGGATACCAACTTAT [XGTACX_negctrl_site82],8.51 ± 0.61
16,ATAATAATATATACATGTACATATATATATATATAT [XGTACX_site3455],9.97 ± 0.54
17,AAATATTTATAAATTGCACACAAATAATAACATTAT [CACACA_site8737],8.3 ± 0.31
18,TTTTTTTTTTTAATATGTACGTAAAATAAGTTTAAA [XGTACX_site6495],8.67 ± 0.071
19,TATTATATTTATTTATGTACACATATACTTAAATAA [XGTACX_site1355],8.46 ± 0.45

row,Sequence,gcPBM binding intensity (ln)
1,TGTAATACAGAAAAAAGTACTAAAAAGAAAAGGATT [XGTACX_site3176],9.02 ± 0.56
2,ACACCTATAAATTAAGTGCATTTTTTTTGATGTTAT,8.65 ± 0.18
3,ACATTCAATCTACTGTGTACATATTAAACTTTGAAA [XGTACX_site2913],8.9 ± 0.31
4,AAAAAATATATATCACGTGGTAATATATATATATAT [XGTACX_negctrl_site252],10 ± 0.28
5,AATATATAAATAGATACACACATACATACATACATA [CACACA_site4301],8.52 ± 0.3
6,AAATTAAATCCGCACGCACACACACCGATTAATAAA [CACACA_site9321],8.75 ± 0.27
7,TACATCTGTATATAAACACACAACAAAAATGCTTAC [CACACA_site3814],8.57 ± 0.46
8,CTATAATAACATAACACACACATGTATTTATAGGTG [CACACA_site6298],8.66 ± 0.37
9,ATATATATACAACAAGCATGCAGTAATTTTTTTTTT [TGCATGCA_site728],9.195 ± 0.064
10,TCCTTATAAAAATACACACAAACTTTAATTAAAACA [CACACA_site3730],8.45 ± 0.58
11,AAAGATAAAATATTATGTACATATATATATATATAT [XGTACX_site5079],10.2 ± 0.28
12,CATTTAACATAAATTAAACACACAATATAATACATT [CACACA_site8333],8.53 ± 0.48
13,TTTTATTTTTATTATACACACGCTTAATAAATGCAT [CACACA_site1751],8.63 ± 0.29
14,GGGAATATAAGTACACGATAATATGTGATAAGGTCT [CACACA_negctrl_site1502],9.04 ± 0.63
15,TTTTTTTGTTGTTGTTGTACGATATTTTCCTTATCA [XGTACX_site2375],8.87 ± 0.46
16,TATAAAAAAAACAAAAAAAAAAAAAAACAAAAAAAA [TGCATGCA_negctrl_site514],8.22 ± 0.43
17,TGTATAAAAGTTTATACACACATTTGATATATTTCA [CACACA_site6606],8.24 ± 0.47
18,GGGGGGATGAGATATTGTACTTTTTAGGAAAGTGTA [XGTACX_site2835],10.1 ± 0.19
19,ATTAAATACATTAACACACACACAAATATATACATA [CACACA_site2881],8.73 ± 0.52

row,Sequence,gcPBM binding intensity (ln)
1,AATAATAATACTAATCGTACGCATATTTTTCAAACC [XGTACX_site8055],8.65 ± 0.38
2,CATGTTCATCAGAACGCACACATAATGGTTTACTTA [CACACA_site898],8.47 ± 0.3
3,GATACACCAAATAACTGTACGCACGTGTAATATTAA [XGTACX_site3441],8.96 ± 0.45
4,ACTTATATAAAACATTAACACACAAAGAAAAAAAAT [CACACA_site8529],8.67 ± 0.37
5,AGTAACTAATTAAATGCATGTCGATATATATTATAT [TGCATGCA_site1038],8.73 ± 0.24
6,GTGTATATGTATATATGTACATAAATTTTTTTTTTT [XGTACX_site7083],8.24 ± 0.25
7,AAGAAAAAAAAAATTACACACTGCGCACATACACAA [CACACA_site6721],8.725 ± 0.064
8,TATATATATATATATACACACATATATACCTATATA [CACACA_site6085],10 ± 0.48
9,AAAAAAAAGTTAAGCACACACATGAATAAATAATAC [CACACA_site840],8.99 ± 0.45
10,CCTAGAAAAGTATATACACACGCGCAAAATAAAATT [CACACA_site1413],9.41 ± 0.79
11,TTAACCGGTTTATGGGTGCACATTCTTCTTAAATAA [GTGCAC_site9928],8.96 ± 0.19
12,TATAAATAAAGATATACACACATATAAATATTTTTC [CACACA_site7798],8.29 ± 0.43
13,TTGGTCTTTTAAAAAAGTACAAAAAAAAAAAAAAAA [XGTACX_site1665],8.35 ± 0.16
14,AAAAAAGAACGCATAGTGCATATCTAAAAGATTTTT,8.27 ± 0.3
15,GATAAATTAAGACACACACACATATATTTATTTATA [CACACA_site7789],8.61 ± 0.39
16,TAGTATTAGATATATACACACATATATACCTATAGA [CACACA_site7083],8.3 ± 0.49
17,ATTTTTTTTTTTATAGTGGATCCACATTTGCCATTT [CACACA_negctrl_site1106],8.82 ± 0.57
18,TTACGATCATCAATATGTACATATATATATATATAT [XGTACX_site4301],10.2 ± 0.3
19,AATATTTATATTTACACACACATAATACATCTATGT [CACACA_site4187],8.54 ± 0.33
